{"source": "the supplement of paper PMC10369915", "note": "The other results are listed elsewhere or left out. Rule as the data show it: active = 3.2 or more and inactive = the rest. Only a few entries rise above the background.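 Also: displayed peptides selected on beads carrying the immobilized SH2 domain, with library peptides lacking any tyrosine serving as negative controls.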"}
{"molecular_target": "SHP2 C-SH2 domain E139D", "experiment": "enrichment score (SH2-bound / input frequency) (ratio); higher = stronger binding; tyrosines were phosphorylated by kinases first", "details": "peptide library: Human pTyr"}
{"binder": "TFLPVPEYINQSVPK", "note": "[EGFR_HUMAN_1092]", "enrichment score": "inactive: 1.02"}
{"binder": "VTLNMEKYNFLGISI", "note": "[DVL2_HUMAN_275]", "enrichment score": "inactive: 2.16"}
{"binder": "VGETKVIYHLDEEET", "note": "[DVL2_HUMAN_18]", "enrichment score": "inactive: 1.1"}
{"binder": "FGQVVKAYDHQTQEL", "note": "[DYR1B_HUMAN_129]", "enrichment score": "inactive: 0.777"}
{"binder": "SGAFGTVYKGLWIPE", "note": "[EGFR_HUMAN_727]", "enrichment score": "inactive: 0.856"}
{"binder": "SSGGEDGYVRIHYFD", "note": "[EIF3I_HUMAN_308]", "enrichment score": "inactive: 0.973"}
{"binder": "VAGHSLGYGFVNYVT", "note": "[ELAVL1_HUMAN_63]", "enrichment score": "inactive: 1.29"}
{"binder": "DGGAVQDYEDFMGGG", "note": "[EIF3J_HUMAN_254_YA]", "enrichment score": "inactive: 0.693"}
{"binder": "INDDQSLYADVALED", "note": "[DPYL1_HUMAN_32_YA]", "enrichment score": "inactive: 1.29"}
{"molecular_target": "SHP2 C-SH2 domain wild-type", "experiment": "enrichment score (SH2-bound / input frequency) (ratio); higher = stronger binding; tyrosines were phosphorylated by kinases first", "details": "peptide library: Human pTyr"}
{"binder": "TFLPVPEYINQSVPK", "note": "[EGFR_HUMAN_1092]", "enrichment score": "inactive: 0.895"}
{"binder": "VTLNMEKYNFLGISI", "note": "[DVL2_HUMAN_275]", "enrichment score": "inactive: 2.12"}
{"binder": "VGETKVIYHLDEEET", "note": "[DVL2_HUMAN_18]", "enrichment score": "inactive: 0.907"}
{"binder": "FGQVVKAYDHQTQEL", "note": "[DYR1B_HUMAN_129]", "enrichment score": "inactive: 0.57"}
{"binder": "SGAFGTVYKGLWIPE", "note": "[EGFR_HUMAN_727]", "enrichment score": "inactive: 1.51"}
{"binder": "SSGGEDGYVRIHYFD", "note": "[EIF3I_HUMAN_308]", "enrichment score": "inactive: 2.26"}
{"binder": "VAGHSLGYGFVNYVT", "note": "[ELAVL1_HUMAN_63]", "enrichment score": "inactive: 1.21"}
{"binder": "DGGAVQDYEDFMGGG", "note": "[EIF3J_HUMAN_254_YA]", "enrichment score": "inactive: 0.708"}
{"binder": "INDDQSLYADVALED", "note": "[DPYL1_HUMAN_32_YA]", "enrichment score": "inactive: 0.987"}
{"molecular_target": "SHP2 N-SH2 domain L43F", "experiment": "enrichment score (SH2-bound / input frequency) (ratio); higher = stronger binding; tyrosines were phosphorylated by kinases first", "details": "peptide library: Human pTyr"}
{"binder": "TFLPVPEYINQSVPK", "note": "[EGFR_HUMAN_1092]", "enrichment score": "inactive: 0.866"}
{"binder": "VTLNMEKYNFLGISI", "note": "[DVL2_HUMAN_275]", "enrichment score": "inactive: 1.77"}
{"binder": "VGETKVIYHLDEEET", "note": "[DVL2_HUMAN_18]", "enrichment score": "inactive: 1.02"}
{"binder": "FGQVVKAYDHQTQEL", "note": "[DYR1B_HUMAN_129]", "enrichment score": "inactive: 0.703"}
{"binder": "SGAFGTVYKGLWIPE", "note": "[EGFR_HUMAN_727]", "enrichment score": "inactive: 0.859"}
{"binder": "SSGGEDGYVRIHYFD", "note": "[EIF3I_HUMAN_308]", "enrichment score": "active: 3.48"}
{"binder": "VAGHSLGYGFVNYVT", "note": "[ELAVL1_HUMAN_63]", "enrichment score": "inactive: 1.28"}
{"binder": "DGGAVQDYEDFMGGG", "note": "[EIF3J_HUMAN_254_YA]", "enrichment score": "inactive: 0.642"}
{"binder": "INDDQSLYADVALED", "note": "[DPYL1_HUMAN_32_YA]", "enrichment score": "inactive: 1.11"}
{"molecular_target": "SHP2 N-SH2 domain T42A", "experiment": "enrichment score (SH2-bound / input frequency) (ratio); higher = stronger binding; tyrosines were phosphorylated by kinases first", "details": "peptide library: Human pTyr"}
{"binder": "TFLPVPEYINQSVPK", "note": "[EGFR_HUMAN_1092]", "enrichment score": "inactive: 0.845"}
{"binder": "VTLNMEKYNFLGISI", "note": "[DVL2_HUMAN_275]", "enrichment score": "inactive: 2.12"}
{"binder": "VGETKVIYHLDEEET", "note": "[DVL2_HUMAN_18]", "enrichment score": "inactive: 1.05"}
{"binder": "FGQVVKAYDHQTQEL", "note": "[DYR1B_HUMAN_129]", "enrichment score": "inactive: 0.486"}
{"binder": "SGAFGTVYKGLWIPE", "note": "[EGFR_HUMAN_727]", "enrichment score": "inactive: 0.772"}
{"binder": "SSGGEDGYVRIHYFD", "note": "[EIF3I_HUMAN_308]", "enrichment score": "inactive: 1.09"}
{"binder": "VAGHSLGYGFVNYVT", "note": "[ELAVL1_HUMAN_63]", "enrichment score": "inactive: 1.42"}
{"binder": "DGGAVQDYEDFMGGG", "note": "[EIF3J_HUMAN_254_YA]", "enrichment score": "inactive: 0.579"}
{"binder": "INDDQSLYADVALED", "note": "[DPYL1_HUMAN_32_YA]", "enrichment score": "inactive: 1.18"}
{"molecular_target": "SHP2 N-SH2 domain T52S", "experiment": "enrichment score (SH2-bound / input frequency) (ratio); higher = stronger binding; tyrosines were phosphorylated by kinases first", "details": "peptide library: Human pTyr"}
{"binder": "TFLPVPEYINQSVPK", "note": "[EGFR_HUMAN_1092]", "enrichment score": "inactive: 1.17"}
{"binder": "VTLNMEKYNFLGISI", "note": "[DVL2_HUMAN_275]", "enrichment score": "inactive: 2.16"}
{"binder": "VGETKVIYHLDEEET", "note": "[DVL2_HUMAN_18]", "enrichment score": "inactive: 1.08"}
{"binder": "FGQVVKAYDHQTQEL", "note": "[DYR1B_HUMAN_129]", "enrichment score": "inactive: 0.803"}
{"binder": "SGAFGTVYKGLWIPE", "note": "[EGFR_HUMAN_727]", "enrichment score": "inactive: 0.738"}
{"binder": "SSGGEDGYVRIHYFD", "note": "[EIF3I_HUMAN_308]", "enrichment score": "inactive: 2.32"}
{"binder": "VAGHSLGYGFVNYVT", "note": "[ELAVL1_HUMAN_63]", "enrichment score": "inactive: 1.35"}
{"binder": "DGGAVQDYEDFMGGG", "note": "[EIF3J_HUMAN_254_YA]", "enrichment score": "inactive: 0.615"}
{"binder": "INDDQSLYADVALED", "note": "[DPYL1_HUMAN_32_YA]", "enrichment score": "inactive: 1.4"}
{"molecular_target": "SHP2 N-SH2 domain wild-type", "experiment": "enrichment score (SH2-bound / input frequency) (ratio); bacterial display of known human phosphotyrosine sites (pTyr-Var adds point mutants) read by sequencing; higher = stronger binding; tyrosines were phosphorylated by kinases first", "details": "peptide library: Human pTyr"}
{"binder": "TFLPVPEYINQSVPK", "note": "[EGFR_HUMAN_1092]", "enrichment score": "inactive: 0.679"}
{"binder": "VTLNMEKYNFLGISI", "note": "[DVL2_HUMAN_275]", "enrichment score": "inactive: 2.6"}
{"binder": "VGETKVIYHLDEEET", "note": "[DVL2_HUMAN_18]", "enrichment score": "inactive: 0.974"}
{"binder": "FGQVVKAYDHQTQEL", "note": "[DYR1B_HUMAN_129]", "enrichment score": "inactive: 0.667"}
{"binder": "SGAFGTVYKGLWIPE", "note": "[EGFR_HUMAN_727]", "enrichment score": "inactive: 0.669"}
{"binder": "SSGGEDGYVRIHYFD", "note": "[EIF3I_HUMAN_308]", "enrichment score": "inactive: 0.68"}
{"binder": "VAGHSLGYGFVNYVT", "note": "[ELAVL1_HUMAN_63]", "enrichment score": "inactive: 1.53"}
{"binder": "DGGAVQDYEDFMGGG", "note": "[EIF3J_HUMAN_254_YA]", "enrichment score": "inactive: 0.58"}
{"binder": "INDDQSLYADVALED", "note": "[DPYL1_HUMAN_32_YA]", "enrichment score": "inactive: 1.41"}
